Reference: the supplement of paper PMC11417369
± gives the standard deviation of the averaged measurements. The list shows a part of the results.

test system: PfAP2-I AP2 domain 3 (GST-tagged); test: gcPBM binding intensity (ln(normalized median fluorescence intensity)); higher = stronger DNA binding
Method in brief: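 The binding buffer was 1× PBS containing 1% milk, 0.2 mg/ml BSA, 0.5% salmon testes DNA and 0.03% Triton X-100. In it, GST-tagged P. falciparum DNA-binding domains expressed in E. coli were applied for 1 h to an Agilent 4 × 180k array of primer-extended double-stranded 36-bp intergenic genomic probes plus negative controls. Binding intensity, read with Alexa488 anti-GST antibody and a 488 nm scan, is the highest Masliner-normalised natural-log median intensity across replicate spots of either probe orientation.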

Sequence	gcPBM binding intensity (ln)
AAACTATACCAAAACACACATACAAAATATAAAAAA [CACACA_site2707]	7.83 ± 0.39
TTTTTTTTTTTTTTTTTACACACTGCATACAAGAAA [CACACA_site3026]	8.47 ± 0.52
GTCTGCATATGGATACGTACACATATATATTAATGT [XGTACX_site2260]	8.29 ± 0.38
GGGAAAAAATGAGGTCGTACATTTTTCATCACAAAT [XGTACX_site8920]	7.93 ± 0.47
CTCATATATAACACATGTACACAGATTTTGCAAATG [XGTACX_site6879]	8.27 ± 0.27
AATGAATGTACATACGCATGTACTTGACTAAATTAT [TGCATGCA_site436]	7.83 ± 0.55
ATGTTATATTTTTTTATACACACTGGAATATATAAA [CACACA_site215]	7.95 ± 0.54
ATTTATAATGAGTATACACACATATATAGATTTGCT [CACACA_site4517]	7.63 ± 0.49
ATTATTATTGTCAAATGTACAAGCTAATAATTTTTA [XGTACX_site7167]	7.54 ± 0.41
TATATATATATATATTGTACTTTATTTTATATATTC [XGTACX_site5697]	9.24 ± 1
AAAAAAAAAAAAAACATACACACAAGAACAAAATAT [CACACA_site3003]	8.05 ± 0.56
CAACAACATTTTTCATGTACATATATTTTATAATAT [XGTACX_site519]	7.83 ± 0.39
TAAAAAATAAAATACACACACATATTTATATTTATA [CACACA_site6737]	7.41 ± 0.4
AAACATTTAAATGGAAACACAGAAAAATGAAAAATG [CACACA_negctrl_site457]	8.05 ± 0.65
TTTTTTTTTTGTAATACACACCACTATATGTTATTT [CACACA_site5087]	8.24 ± 0.65
ATATATATATATACATGTACATATATACATTATATT [XGTACX_site936]	9.11 ± 0.42
ATATATATATATATATGTACATATTTTTTATTTTAT [XGTACX_site5761]	9.36 ± 0.42
ATATGTTACTTTACATAAAGAAGAAGAAGAAGAAAA [CACACA_negctrl_site985]	7.47 ± 0.53
TATTATTCAAATAAAAGAAAAATATATATATTATAT [GTGCAC_negctrl_site273]	7.63 ± 0.42

Sequence	gcPBM binding intensity (ln)
TCCCCCTTTTTTTGATTTTTATCTTAATTCTAAAAG [GTGCAC_negctrl_site541]	7.85 ± 0.38
TTTCAAAAAGGAAGAAAAAAAAAAAAAAAAAATATA [XGTACX_negctrl_site514]	7.34 ± 0.52
TTTTTTCTTTTCAAGGTGCTTTATAAGAAAAAGGGA [GTGCAC_site9858]	11.1 ± 0.89
AAAAAAAAAAAAAACACACACACACCCAAATACATA [CACACA_site708]	8.48 ± 0.54
AGTATTATATTTTCTTGTACACATGTAAAATACCTC [XGTACX_site1359]	8.28 ± 0.35
TATTTTATCATTTGCACACGCACACCCACATAAAAA [CACACA_site354]	9.68 ± 0.15
TATATTAAAACAAGCACACAATCGCATAATATCCTT [CACACA_site3210]	7.76 ± 0.65
AAAAAAAAAAAAAAAACACACATATATGTATATATA [CACACA_site3276]	8.65 ± 0.41
CAATTACGCAGGAATGCACACAATAATAAAAAAAAT [CACACA_site3513]	8.99 ± 0.19
CTATTTCAGAAACACACACACACAAACAAACATATA [CACACA_site978]	8.04 ± 0.21
TTAGAGAAACAAAATTGTACATTATAAATTTGCCTT [XGTACX_site440]	7.49 ± 0.53
CAAGAAATTTACAAACGTACATATGTTCATACAAGG [XGTACX_site2372]	7.77 ± 0.73
TATTTGAAAGCCAATTGTACTTTAGTTTTTGAAACA [XGTACX_site5542]	7.53 ± 0.32
TTAAATATAATATTATGTACTAAATATTTTTTTATT [XGTACX_site6121]	7.54 ± 0.38
TTTCTTTTTAAATAGGTGCATATTTTTATAAATATA	9.95 ± 0.42
ATATATTTACATATTACACACAATATTGTACACATA [CACACA_site6564]	8.24 ± 0.47
TTTATATATATTCTCACACACTTTTTATTTTAACAA [CACACA_site4534]	7.87 ± 0.55
AAAAATATTTATAACACACACATAATATTTATATAT [CACACA_site7238]	7.83 ± 0.59
ATAAATTTCCTCGTTTTTTTTTTTTTTTTTTTTTTT [CACACA_negctrl_site1173]	9.78 ± 0.028

Sequence	gcPBM binding intensity (ln)
TAAGGATGAATCCTTTGTACATATATATATATATAT [XGTACX_site1242]	9.26 ± 0.4
GTTATACATTTTGATTGTACATAAACCATTTGAGCA [XGTACX_site7283]	7.92 ± 0.35
TGAAAAGAAAACACATGTACAAATATATAAATATAA [XGTACX_site6098]	7.59 ± 0.67
TTTTTTTAAATATACACACACATTTATACATATATA [CACACA_site3400]	7.97 ± 0.5
TATAAACATATCATATGTACATATATTTTTATAAAA [XGTACX_site8882]	7.58 ± 0.19
ATATATTTTTGTAGTGTGCACGTTTATATGGTGAAA	10.7 ± 0.32
TTTAACGTTGAATATACACACATATATATATATATA [CACACA_site3698]	9.22 ± 0.31
AAGAAAAAATAAAAAATAAAAATAAAAAATAAAAAA [TGCATGCA_negctrl_site274]	7.32 ± 0.77
AAAAAATATTAATATAGTACTTTATATTTATAAGTA [XGTACX_site6895]	7.53 ± 0.27
GGAAAAAATATATGCACACCCCCCAAAAAAAAAAAA [CACACA_site2222]	10.6 ± 0.2
TTTTTGTTATTTTTAGTGCACATTTAAGGGTGTATT	11.4 ± 0.53
GAAGGAAAAACAGAATGTACATAAATAAACGTATAT [XGTACX_site753]	8.31 ± 0.35
ACAAAATTTACAAAATGTACAAAATTTACAAAATGT [XGTACX_site6464]	7.5 ± 0.61
TATATCTTACTTTTTGCACACACTAATATTATTGTT [CACACA_site1640]	9.45 ± 0.32
AATACGGCAAACATTAAAAAATATAATAACAATAAA [CACACA_negctrl_site868]	7.75 ± 0.55
ATCTGTCGACAGGACAGTACACAGTAGCCAGGAAAT [XGTACX_site1994]	8.09 ± 0.93
TATATATATATATATATATATATGTATGTGCATTTA [TGCATGCA_negctrl_site53]	9.42 ± 0.41
ATATAAAAATGTAAGGGTACATAATAAATAATCAAA [XGTACX_site5217]	7.92 ± 0.34
ATTTAGAAAAATAAAACACACATATATATGTAAATA [CACACA_site4113]	7.58 ± 0.59
